# Over roughly 33,000 sequences, “E-score (-0.5 to 0.5)” has its median near -0.043; the highest 2% begin near 0.37. Some of the results follow.
# Molecular target: T1, Upc2 (UniProt Q12151)
# T1 sequence: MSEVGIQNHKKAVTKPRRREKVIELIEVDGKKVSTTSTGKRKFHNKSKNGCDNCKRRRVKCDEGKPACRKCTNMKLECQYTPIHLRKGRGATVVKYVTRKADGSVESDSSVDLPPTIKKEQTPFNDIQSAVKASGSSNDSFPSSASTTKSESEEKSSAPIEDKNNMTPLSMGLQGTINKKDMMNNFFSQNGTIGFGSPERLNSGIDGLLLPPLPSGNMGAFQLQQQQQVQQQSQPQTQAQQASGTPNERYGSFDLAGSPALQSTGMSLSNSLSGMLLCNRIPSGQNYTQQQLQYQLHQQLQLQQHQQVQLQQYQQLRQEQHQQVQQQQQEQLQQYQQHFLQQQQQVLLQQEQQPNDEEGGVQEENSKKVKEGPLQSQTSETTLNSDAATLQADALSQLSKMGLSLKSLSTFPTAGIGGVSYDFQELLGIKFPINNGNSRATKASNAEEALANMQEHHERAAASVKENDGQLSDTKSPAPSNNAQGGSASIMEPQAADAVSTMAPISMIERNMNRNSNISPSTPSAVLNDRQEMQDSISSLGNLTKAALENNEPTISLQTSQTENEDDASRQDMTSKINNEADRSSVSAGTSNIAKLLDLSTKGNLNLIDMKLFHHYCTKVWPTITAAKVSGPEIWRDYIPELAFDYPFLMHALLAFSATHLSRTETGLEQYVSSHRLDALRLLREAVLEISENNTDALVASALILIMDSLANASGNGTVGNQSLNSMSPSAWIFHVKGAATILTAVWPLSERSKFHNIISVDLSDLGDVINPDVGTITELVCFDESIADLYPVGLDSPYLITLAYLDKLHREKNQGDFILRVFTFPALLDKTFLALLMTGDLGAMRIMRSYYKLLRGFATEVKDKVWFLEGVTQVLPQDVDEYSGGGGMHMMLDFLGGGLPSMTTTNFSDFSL
# Assay: PBM E-score (8-mer binding enrichment) (E-score (-0.5 to 0.5)); higher = stronger / more preferred TF binding; most listed sequences are background and not binding sites
# Conditions: protein concentration: 200 nM; construct: GST-full length
# In short: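 Universal all-10-mer Agilent arrays, fresh or stripped once, were converted to double-stranded form by primer extension. GST-tagged yeast transcription factors from PURExpress in vitro transcription/translation, full-length or DNA-binding domain only, were applied at about 100-200 nM and detected with fluorescent anti-GST. After masliner normalisation, the Universal PBM Analysis Suite scored each ungapped eight-base word together with its reverse complement by E-score.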
row,Sequence,PBM E-score
1,AGCACAGC,0.0283
2,AGGCCGAC,-0.156
3,TTGGCCAA,-0.303
4,TAACTCTA,-0.0512
5,GCGCTAGA,-0.0391
6,CAGAACAC,-0.0983
7,TGGCTTAA,0.0926
8,AAGGTTCA,-0.145
9,TCGCTAGA,0.0467
10,ATGGATCA,-0.271
11,AAGCCTGG,-0.346
12,CCTGTGGC,-0.267
13,CAAATCCC,-0.0579
14,CTGTCCGA,0.172
15,CACAAGAC,-0.127
16,AACAGGCT,-0.151
17,CATATCCA,0.0239
18,ACCGAACG,0.269
19,GCGCGAAA,-0.00414
20,GTAAAAAC,0.175
21,GCTCCCTA,-0.164
22,CCTAAACG,0.472
23,GCTCGGAA,0.179
24,AGTTTTAA,0.0567
25,AGGCTACG,0.105

row,Sequence,PBM E-score
1,GACTTCGC,0.162
2,CTGTTTGA,-0.0401
3,CGCTGTTC,0.0477
4,AATGTAGG,-0.245
5,CCCTAGAC,-0.128
6,AGTCCCTG,-0.129
7,AGCTGTGG,-0.304
8,CAAAGTGG,-0.131
9,AGTACGTA,0.27
10,GGTAGACC,-0.00883
11,GTGACCGA,0.11
12,GACCGACC,0.102
13,AAGAGGCC,-0.074
14,AGCGCCCT,-0.158
15,GTTCGTGA,0.0858
16,CAGGTCCA,-0.11
17,CTTGCGCC,-0.103
18,CACCACTG,-0.126
19,ATCGACGA,-0.0697
20,CCGACTAC,0.0367
21,ACGAAGCG,0.343
22,ATTCTTTG,-0.17
23,ATTAAGGA,-0.198
24,GCCATTCA,-0.162
25,AGCTGCGA,-0.0413

row,Sequence,PBM E-score
1,GCTGATGA,-0.0312
2,CTAGTGAA,-0.126
3,CCAGGGAC,-0.193
4,ATGTCTTC,-0.335
5,ACCCAAAC,0.195
6,ATCCCCAC,-0.103
7,CAACAGCA,-0.232
8,CAAACGAG,0.484
9,ATATTGAA,0.0809
10,AATCATAG,-0.217
11,GACCGGAC,0.00589
12,CTCTAATC,-0.0321
13,CACGAGTC,0.00415
14,ACCTTCGC,0.0425
15,CAGCGGAG,-0.106
16,AAAGCCCG,0.0429
17,AACATTCG,0.0483
18,AATTACCG,0.217
19,GTTCAGAA,0.222
20,AACAAGAA,-0.031
21,AGTGGATG,-0.00268
22,ACAGACCC,-0.071
23,TACCTGAA,0.0855
24,AAAGGTGG,-0.0797
25,ACGGCCTA,0.157

row,Sequence,PBM E-score
1,AGATGGCA,0.0387
2,ACCTGAGC,-0.091
3,ACTCAGAT,-0.0886
4,ACGATTAA,0.321
5,TCCGCGCA,-0.0128
6,AACTATCA,0.134
7,CTGCGCGC,0.0709
8,GTATTACA,0.123
9,CGGTGCCA,-0.219
10,ACGAGAGG,0.353
11,TACTTCTA,0.022
12,AATACAGA,0.00408
13,CGTACATA,0.415
14,ACCCGACT,0.0188
15,GCGAATCC,0.218
16,AAGCCGAG,0.0185
17,AGCGGTCA,-0.126
18,TCTATTCA,0.0757
19,GGCTGACA,-0.201
20,CATTCGGC,-0.197
21,AACGGGTC,0.201
22,AGCAAGAT,-0.0379
23,GTTTTGTA,0.185
24,GACGCGAC,-0.00419
25,CTCCCTTC,-0.341

row,Sequence,PBM E-score
1,CTCTTGAC,-0.148
2,AATCTCAG,-0.182
3,GCTTCACA,-0.124
4,ACTTCTTG,0.0022
5,AGTCGCAT,0.171
6,ATTATGAA,-0.13
7,GCTCAAAC,0.116
8,GCGAGCAC,0.202
9,GATGTCGC,0.137
10,GATTGGGA,-0.326
11,CTCATACC,0.051
12,CGCTAGTA,0.118
13,CTGGTGGC,-0.12
14,CCGCCCCG,0.136
15,ATAAAATA,-0.00219
16,AAACGTCC,0.156
17,GTGTTCGA,0.206
18,CGTTTTCA,0.13
19,AACGTACG,0.386
20,ACTGCCTG,-0.081
21,ACGTGAAT,0.125
22,CGTCTACC,0.0136
23,GCGGCTAC,-0.136
24,AAGTAGAT,-0.0764
25,ACGATGCG,0.332

row,Sequence,PBM E-score
1,CGCTCACG,0.124
2,CCAGTACA,-0.157
3,ATCTTGAC,-0.141
4,AGGGGTTC,-0.0893
5,AATTGGCA,-0.0372
6,GGTCCAGA,-0.222
7,CGTGAATC,0.00286
8,AGGTGGAC,-0.314
9,GTTCCGCA,0.172
10,GAACGGTA,0.283
11,ACGCAGCC,-0.158
12,AAATTAGT,-0.0881
13,AAAAGCCG,0.0198
14,CCGCGCAC,-0.113
15,AATCAAAA,-0.0286
16,CAATTAAC,0.0844
17,CCCGCCGG,-0.238
18,ACGTAGTC,-0.0476
19,GAGGCAGA,0.0168
20,ATTTTGCA,-0.0911
21,GACCGGCC,-0.11
22,AGCCGTAT,0.378
23,CCAGTGCC,-0.00341
24,CGGGAAAA,0.172
25,CCTATAAA,-0.07

row,Sequence,PBM E-score
1,GCCGGCGA,-0.152
2,AACATTTA,0.0973
3,AGCCATGA,-0.065
4,GGGAGCCC,-0.191
5,CTGTTGTA,-0.0648
6,AAAGAACA,-0.0314
7,TAACTTCA,0.103
8,CAGATTAG,-0.223
9,GACAACAA,-0.0425
10,AGAGATAT,-0.122
11,GAGTGCAC,0.00822
12,AATTTTCC,0.117
13,AGTGAAGA,-0.0947
14,AGCGGAAG,-0.0236
15,CATAGGTA,-0.0203
16,ATTTGAGC,0.0293
17,ACAGCCCA,-0.0191
18,CCGACCGG,0.14
19,CGATGCAA,0.0494
20,ATGACATA,0.0138
21,ATTCGATG,0
22,ATCGCTCA,0.217
23,GTAGCGTA,0.257
24,AGTGTGCA,-0.165
25,CAAGACGA,0.0303

row,Sequence,PBM E-score
1,ACGTTGAT,0.0223
2,CTGGCGGC,-0.173
3,CAGTGCAC,-0.136
4,ACCTGACC,-0.0507
5,AAAAACAC,-0.0437
6,GACCCCAC,0.0512
7,ATACTTTG,-0.0806
8,GGTCGTGA,-0.0444
9,GAGAACCC,-0.121
10,TCAATGGA,-0.238
11,CTCTTATA,0.339
12,AGATGCAG,-0.113
13,AATTATCT,-0.0252
14,ACCGAACT,0.0158
15,CTGGTTTC,-0.0981
16,AGCACAAC,0.0579
17,AAGGCTGA,-0.316
18,AAATTGTG,0.00889
19,AAGAACAC,0.102
20,CAAGACCC,-0.0824
21,AAGACTCG,0.00623
22,CAGCGCAG,-0.217
23,CACGCTGA,-0.154
24,TCCCCAAA,-0.079
25,CGATTGTC,-0.0824

row,Sequence,PBM E-score
1,CAAAAGCC,-0.261
2,CTGATCGA,-0.0874
3,AATACAGC,-0.0975
4,ACTTCATC,-0.0236
5,GAAGGTAC,0.164
6,AGGTCGTG,0.0575
7,CCGCGGCG,-0.117
8,CCAGTGAA,-0.26
9,GACGCCTA,-0.0797
10,AGGTAATA,-0.0412
11,GTGGCCCA,-0.0479
12,ATCCCTCG,0.13
13,AGGCCACA,-0.327
14,CAATGATA,-0.0998
15,ATTCTTCG,0.15
16,GAGGCCAC,-0.112
17,CGTGATAA,0.0618
18,AGTTCACC,0.103
19,GTTTGGTA,0.285
20,CCTCACAG,-0.0653
21,AAAGCCTT,-0.169
22,CTGCATAA,-0.158
23,GTTGGTTA,0.0699

# Source: the supplement of paper PMC3334620
